Paper PMC9095880, “AIMP2-DX2 provides therapeutic interface to control KRAS-driven tumorigenesis” (Nature Communications, 2022)

Target: T1, GST-DX2 (human, UniProt Q13155-2 1-251)
T1 construct: AIMP2-DX2 (DX2), splicing variant of human AIMP2 that lacks exon II; also called purified GST-DX2; source: purified
T1 sequence (looked up): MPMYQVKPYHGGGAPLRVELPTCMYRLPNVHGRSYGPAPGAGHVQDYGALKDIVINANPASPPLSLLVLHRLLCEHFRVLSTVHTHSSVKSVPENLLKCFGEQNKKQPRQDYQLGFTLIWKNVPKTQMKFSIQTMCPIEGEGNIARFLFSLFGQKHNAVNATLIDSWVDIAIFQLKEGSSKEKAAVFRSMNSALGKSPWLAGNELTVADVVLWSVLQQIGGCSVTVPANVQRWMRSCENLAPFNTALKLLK
Assay: pull-down; in vitro pull-down with purified GST-DX2 and purified RAS proteins (native or farnesylated in vitro); immunoblot with anti-pan RAS antibody
Settings: both partners purified

B1: KRAS4A protein (native) (natural protein)
chain: not shown
notes: KRAS4A; also called native KRAS4A
B1: binds.
